Structures are written as SMILES. The list shows a part of the results.

The first assay has as its system HSkMC (human skeletal muscle cells). As to the kind of experiment: cytotoxicity call (relative viability < 0.9). Particulars: 10 µM.
With `C[C@@H]1CCCCO[C@@H](CN(C)C(=O)Nc2ccc3c(c2)OCO3)[C@@H](C)CN([C@H](C)CO)C(=O)c2cc(NS(=O)(=O)c3ccc(F)cc3)ccc2O1`, the cytotoxicity call was “inactive”.

In the case of `C[C@@H]1CN([C@@H](C)CO)C(=O)Cc2cc(NS(=O)(=O)c3ccc(Cl)cc3)ccc2O[C@H]1CN(C)C(=O)Nc1cccc2ccccc12`, the cytotoxicity call is “inactive”.

Turning to `C[C@@H]1CN([C@H](C)CO)C(=O)Cc2cc(NC(=O)Nc3ccc(F)cc3)ccc2O[C@H]1CN(C)Cc1ccc(Oc2ccccc2)cc1`, the cytotoxicity call was “active”.

With `O=C(C[C@@H]1C=C[C@H](NC(=O)c2ccc3c(c2)OCO3)[C@@H](CO)O1)NCc1ccc(Oc2ccccc2)cc1`, the cytotoxicity call is “inactive”.

With `CCCNC(=O)C[C@@H]1CC[C@@H]2[C@H](COc3ccc(NS(=O)(=O)c4ccccc4C)cc3C(=O)N2C)O1`, the cytotoxicity call was “inactive”.

In the case of `CCS(=O)(=O)Nc1ccc2c(c1)C(=O)N(C)C[C@H](OC)[C@@H](C)CN(C(=O)c1ccc3c(c1)OCO3)[C@@H](C)CO2`, the cytotoxicity call is “inactive”.

Consider `C[C@@H]1CCCCO[C@H](CN(C)C(=O)CCCN(C)C)[C@H](C)CN([C@@H](C)CO)C(=O)c2cc(NS(C)(=O)=O)ccc2O1`, for which the cytotoxicity call is “inactive”.

For the molecule `COc1cccc(S(=O)(=O)N2C[C@H](O)COC[C@@H]3O[C@@H](CC(=O)NCCCN4CCOCC4)CC[C@H]32)c1`, the cytotoxicity call is “inactive”.

In the case of `C[C@H](CO)N1C[C@H](C)[C@H](CN(C)C(=O)Nc2ccc(N3CCCCC3)cc2)OCc2cn(nn2)CCCC1=O`, the cytotoxicity call was “inactive”.

Turning to `COc1ccc(CN(C)C[C@@H]2OCCCC[C@@H](C)Oc3ccc(NC(=O)Nc4c(C)noc4C)cc3C(=O)N([C@H](C)CO)C[C@@H]2C)cc1`, the cytotoxicity call was “inactive”.

As for `COCCNC(=O)C[C@H]1C[C@H]2c3cc(NC(=O)CN(C)C)ccc3O[C@H]2[C@H](CO)O1`, the cytotoxicity call was “inactive”.

As for `C[C@@H]1CN([C@H](C)CO)C(=O)Cc2cc(NC(=O)Cn3cnnn3)ccc2O[C@H]1CN(C)C(=O)Nc1cccc2ccccc12`, the cytotoxicity call was “inactive”.

On to `CN1CCN(C(=O)C[C@H]2C=C[C@@H](NS(=O)(=O)c3cccc(F)c3)[C@H](CO)O2)CC1`, for which the cytotoxicity call is “inactive”.

Regarding `CC(C)NC(=O)Nc1ccc2c(c1)CC(=O)N([C@@H](C)CO)C[C@H](C)[C@H](CN(C)Cc1ccc3c(c1)OCO3)O2`, the cytotoxicity call is “inactive”.

As to `COCCCNC(=O)[C@@]1(Sc2ccc(C)cc2)CC(=O)N(Cc2ccccc2C(F)(F)F)[C@@H]1c1ccc(CO)cc1`, the cytotoxicity call is “inactive”.

Turning to `COc1ccc(NC(=O)N(C)C[C@@H]2OCCCC[C@H](C)Oc3ccc(NC(=O)Nc4ccccc4)cc3C(=O)N([C@H](C)CO)C[C@@H]2C)cc1`, the cytotoxicity call is “inactive”.

For the molecule `C[C@@H]1CN([C@@H](C)CO)C(=O)c2cccc(NC(=O)Nc3ccc(C(F)(F)F)cc3)c2O[C@@H]1CN(C)C(=O)Nc1ccc(C(F)(F)F)cc1`, the cytotoxicity call is “active”.

As to `C[C@@H]1CN([C@H](C)CO)C(=O)c2cc(N(C)C)ccc2O[C@@H](C)CCCCO[C@H]1CN(C)C(=O)Nc1ccc(C(F)(F)F)cc1`, the cytotoxicity call was “inactive”.

In the case of `Cc1ccc(S(=O)(=O)N(C)C[C@@H]2OCCCC[C@H](C)Oc3ccc(NC(=O)Nc4ccccc4)cc3C(=O)N([C@@H](C)CO)C[C@H]2C)cc1`, the cytotoxicity call is “inactive”.

On to `COc1cccc(OCc2ccc(Cn3nc(NC(=O)NCc4ccc(F)cc4)c4ccccc43)cc2)c1`, for which the cytotoxicity call is “inactive”.

For the molecule `CC1(C)OC(=O)N(CCCC(=O)O)[C@@]1(C)O`, the cytotoxicity call is “inactive”.

`C[C@H](CO)N1C[C@H](C)[C@H](CN(C)Cc2ccc(C(F)(F)F)cc2)Oc2ccc(NC(=O)Cn3cnnn3)cc2C1=O`: the cytotoxicity call was “inactive”.

Take `C[C@@H]1CN([C@@H](C)CO)S(=O)(=O)c2ccc(C#Cc3cccc(F)c3)cc2O[C@@H]1CN(C)S(=O)(=O)c1cn(C)cn1`: the cytotoxicity call is “inactive”.

In the case of `C[C@H]1CN([C@@H](C)CO)S(=O)(=O)c2ccc(C#Cc3ccncc3)cc2O[C@H]1CN(C)C(=O)Nc1ccc2c(c1)OCO2`, the cytotoxicity call was “inactive”.

As for `Cc1noc(C)c1S(=O)(=O)N(C)C[C@@H]1Oc2ccc(NS(=O)(=O)c3ccc(Cl)cc3)cc2C(=O)N([C@H](C)CO)C[C@@H]1C`, the cytotoxicity call is “inactive”.

Turning to `Cc1ccc(S(=O)(=O)N(C)C[C@H]2Oc3ccc(NS(C)(=O)=O)cc3CC(=O)N([C@@H](C)CO)C[C@@H]2C)cc1`, the cytotoxicity call is “inactive”.

In the case of `C[C@H]1CN([C@@H](C)CO)C(=O)CCCn2nncc2CO[C@H]1CN(C)C(=O)Nc1ccc2c(c1)OCCO2`, the cytotoxicity call is “inactive”.

In the case of `O=C(C[C@@H]1CC[C@@H](NC(=O)Nc2ccc3c(c2)OCO3)[C@H](CO)O1)NCCCN1CCOCC1`, the cytotoxicity call is “inactive”.

With `CC(=O)NCC(=O)N1CCC2(CC1)C(=O)N(CC1CC1)CCN2C`, the cytotoxicity call was “inactive”.

The subject of the next assay is HepG2. As to the kind of experiment: cytotoxicity call (relative viability < 0.9). Particulars: 10 µM.
For `C[C@H]1CN([C@@H](C)CO)C(=O)c2cc(Br)cnc2O[C@@H]1CN(C)S(=O)(=O)c1ccccc1`, the cytotoxicity call was “inactive”.

As for `Cc1noc(C)c1NC(=O)N(C)C[C@H]1Oc2ccc(NS(=O)(=O)c3cccs3)cc2CC(=O)N([C@@H](C)CO)C[C@@H]1C`, the cytotoxicity call is “inactive”.

Turning to `CC/N=c1\nc(NCC)[nH]c(=S)[nH]1`, the cytotoxicity call is “inactive”.

In the case of `CNC[C@H]1Oc2ccc(NC(=O)CCN3CCOCC3)cc2CC(=O)N([C@H](C)CO)C[C@@H]1C`, the cytotoxicity call is “inactive”.

Take `COC(=O)C[C@H]1CC[C@@H]2[C@H](COC[C@H](O)CN2S(=O)(=O)c2ccc(F)cc2)O1`: the cytotoxicity call was “inactive”.

With `C[C@H](CO)N1C[C@H](C)[C@H](CN(C)Cc2ccc(-c3ccccc3)cc2)Oc2ccc(NC(=O)Nc3ccc(C(F)(F)F)cc3)cc2C1=O`, the cytotoxicity call was “active”.

`COCC(=O)N1C[C@@H](C)[C@H](OC)CN(C)C(=O)c2cc(NC(=O)c3ccc(OC)cc3)ccc2OC[C@@H]1C`: the cytotoxicity call is “inactive”.

Regarding `C[C@H]1CCCCO[C@@H](CN(C)C(=O)c2ccccc2)[C@@H](C)CN([C@@H](C)CO)C(=O)c2cc(NC(=O)Nc3ccc(C(F)(F)F)cc3)ccc2O1`, the cytotoxicity call was “inactive”.

For the molecule `O=C(C[C@@H]1C=C[C@@H](NS(=O)(=O)c2ccc(F)cc2)[C@@H](CO)O1)NCc1ccc(Cl)c(Cl)c1`, the cytotoxicity call was “inactive”.

On to `C[C@H]1CN([C@@H](C)CO)C(=O)Cc2cc(NC(=O)CCN3CCOCC3)ccc2O[C@@H]1CN(C)S(=O)(=O)c1cn(C)cn1`, for which the cytotoxicity call is “inactive”.

`CO[C@@H]1CN(C)C(=O)c2cc(NS(=O)(=O)c3cn(C)cn3)ccc2OC[C@H](C)N(CCC(F)(F)F)C[C@@H]1C`: the cytotoxicity call is “inactive”.

On to `C[C@@H]1CCCCO[C@@H](CN(C)C(=O)Nc2ccc3c(c2)OCO3)[C@@H](C)CN([C@H](C)CO)C(=O)c2cc(NS(=O)(=O)c3ccc(F)cc3)ccc2O1`, for which the cytotoxicity call was “inactive”.

Consider `C[C@@H]1CN([C@@H](C)CO)C(=O)Cc2cc(NS(=O)(=O)c3ccc(Cl)cc3)ccc2O[C@H]1CN(C)C(=O)Nc1cccc2ccccc12`, for which the cytotoxicity call is “inactive”.

As for `C[C@@H]1CN([C@H](C)CO)C(=O)Cc2cc(NC(=O)Nc3ccc(F)cc3)ccc2O[C@H]1CN(C)Cc1ccc(Oc2ccccc2)cc1`, the cytotoxicity call was “active”.

In the case of `O=C(C[C@@H]1C=C[C@H](NC(=O)c2ccc3c(c2)OCO3)[C@@H](CO)O1)NCc1ccc(Oc2ccccc2)cc1`, the cytotoxicity call was “inactive”.

For `CCCNC(=O)C[C@@H]1CC[C@@H]2[C@H](COc3ccc(NS(=O)(=O)c4ccccc4C)cc3C(=O)N2C)O1`, the cytotoxicity call is “inactive”.

Regarding `CCS(=O)(=O)Nc1ccc2c(c1)C(=O)N(C)C[C@H](OC)[C@@H](C)CN(C(=O)c1ccc3c(c1)OCO3)[C@@H](C)CO2`, the cytotoxicity call was “inactive”.

Take `C[C@@H]1CCCCO[C@H](CN(C)C(=O)CCCN(C)C)[C@H](C)CN([C@@H](C)CO)C(=O)c2cc(NS(C)(=O)=O)ccc2O1`: the cytotoxicity call was “inactive”.

As to `COc1cccc(S(=O)(=O)N2C[C@H](O)COC[C@@H]3O[C@@H](CC(=O)NCCCN4CCOCC4)CC[C@H]32)c1`, the cytotoxicity call was “inactive”.

Consider `C[C@H](CO)N1C[C@H](C)[C@H](CN(C)C(=O)Nc2ccc(N3CCCCC3)cc2)OCc2cn(nn2)CCCC1=O`, for which the cytotoxicity call is “inactive”.

In the case of `COc1ccc(CN(C)C[C@@H]2OCCCC[C@@H](C)Oc3ccc(NC(=O)Nc4c(C)noc4C)cc3C(=O)N([C@H](C)CO)C[C@@H]2C)cc1`, the cytotoxicity call was “inactive”.

On to `COCCNC(=O)C[C@H]1C[C@H]2c3cc(NC(=O)CN(C)C)ccc3O[C@H]2[C@H](CO)O1`, for which the cytotoxicity call is “inactive”.

Consider `C[C@@H]1CN([C@H](C)CO)C(=O)Cc2cc(NC(=O)Cn3cnnn3)ccc2O[C@H]1CN(C)C(=O)Nc1cccc2ccccc12`, for which the cytotoxicity call is “inactive”.

In the case of `CN1CCN(C(=O)C[C@H]2C=C[C@@H](NS(=O)(=O)c3cccc(F)c3)[C@H](CO)O2)CC1`, the cytotoxicity call was “inactive”.

On to `CC(C)NC(=O)Nc1ccc2c(c1)CC(=O)N([C@@H](C)CO)C[C@H](C)[C@H](CN(C)Cc1ccc3c(c1)OCO3)O2`, for which the cytotoxicity call was “inactive”.

In the case of `COCCCNC(=O)[C@@]1(Sc2ccc(C)cc2)CC(=O)N(Cc2ccccc2C(F)(F)F)[C@@H]1c1ccc(CO)cc1`, the cytotoxicity call is “inactive”.

`COc1ccc(NC(=O)N(C)C[C@@H]2OCCCC[C@H](C)Oc3ccc(NC(=O)Nc4ccccc4)cc3C(=O)N([C@H](C)CO)C[C@@H]2C)cc1`: the cytotoxicity call was “inactive”.

With `C[C@@H]1CN([C@@H](C)CO)C(=O)c2cccc(NC(=O)Nc3ccc(C(F)(F)F)cc3)c2O[C@@H]1CN(C)C(=O)Nc1ccc(C(F)(F)F)cc1`, the cytotoxicity call was “active”.

As to `C[C@@H]1CN([C@H](C)CO)C(=O)c2cc(N(C)C)ccc2O[C@@H](C)CCCCO[C@H]1CN(C)C(=O)Nc1ccc(C(F)(F)F)cc1`, the cytotoxicity call was “inactive”.

As to `Cc1ccc(S(=O)(=O)N(C)C[C@@H]2OCCCC[C@H](C)Oc3ccc(NC(=O)Nc4ccccc4)cc3C(=O)N([C@@H](C)CO)C[C@H]2C)cc1`, the cytotoxicity call was “inactive”.

`COc1cccc(OCc2ccc(Cn3nc(NC(=O)NCc4ccc(F)cc4)c4ccccc43)cc2)c1`: the cytotoxicity call was “inactive”.

In the case of `CC1(C)OC(=O)N(CCCC(=O)O)[C@@]1(C)O`, the cytotoxicity call was “inactive”.

Regarding `C[C@H](CO)N1C[C@H](C)[C@H](CN(C)Cc2ccc(C(F)(F)F)cc2)Oc2ccc(NC(=O)Cn3cnnn3)cc2C1=O`, the cytotoxicity call was “inactive”.

On to `C[C@@H]1CN([C@@H](C)CO)S(=O)(=O)c2ccc(C#Cc3cccc(F)c3)cc2O[C@@H]1CN(C)S(=O)(=O)c1cn(C)cn1`, for which the cytotoxicity call was “inactive”.

The values above are taken from the antibiotic and cytotoxicity screens of Wong et al. (2023).
